The record followed here is PubChem BioAssay AID1346428 (National Center for Advancing Translational Sciences (NCATS), 2018).

The whole screen tested about 48,000 compounds, of which about 1,200 (2.5%) were called active. Roughly 2% stayed inconclusive and do not appear here.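 Rule for the calls: active = activation of at least 60% and not above a set upper limit (about 1 call in 100 departs from these limits); inconclusive = activation of 40% to 60%, or above that upper limit; inactive = activation under 40%.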 The list shows a part of the results.

Chain of UniProt O75388 (O75388 whole entry, looked up): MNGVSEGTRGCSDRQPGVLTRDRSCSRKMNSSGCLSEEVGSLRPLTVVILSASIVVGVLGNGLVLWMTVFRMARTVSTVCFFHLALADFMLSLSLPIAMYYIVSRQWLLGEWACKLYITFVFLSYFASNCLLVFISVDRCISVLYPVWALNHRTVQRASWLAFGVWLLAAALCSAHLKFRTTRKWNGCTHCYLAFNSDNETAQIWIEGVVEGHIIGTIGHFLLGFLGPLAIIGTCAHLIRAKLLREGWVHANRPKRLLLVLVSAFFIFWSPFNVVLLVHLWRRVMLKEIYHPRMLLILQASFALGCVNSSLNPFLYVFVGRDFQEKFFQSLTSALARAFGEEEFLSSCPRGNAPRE

The assay has as its target Probable G-protein coupled receptor 32 (Homo sapiens) (UniProt O75388). Put plainly: qHTS for Agonists of Human Resolvin D1 Receptor DRV1. Note: 0% is about no effect. The settings on record: CHO-K1 GPR32 beta-arrestin PathHunter luminescence, 90 min; at 76.9 µM; stronger effect = higher value; zero percent set by DMSO-only wells. An outline of the steps:
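CHO-K1 cells stably expressing ProLink-tagged GPR32 and Enzyme Activator-tagged beta-arrestin were seeded at 2,500 cells/well overnight, exposed to compounds for 90 min at 37 °C, then read by beta-Gal complementation chemiluminescence after 1 h detection reagent.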
In the case of `Cc1cccc(C(=O)Nc2cccc(C(=O)OCc3cc(=O)n4nc(C(C)C)sc4n3)c2)c1`, the activation was inactive: -6.25%.

Consider `CC(O)CN(CCN(CC(C)O)CC(C)O)CC(C)O` (stereo not drawn), for which the activation is inactive: -24.1%.

For the molecule `O=C(Nc1c(C(=O)N2CCN(c3ccc(F)cc3)CC2)oc2ccccc12)c1c(F)cccc1F`, the activation is inactive: -4.43%.

As for `Cc1nnc(NC(=O)CSc2nc3c([nH]c4ccccc43)c(=O)n2-c2ccccc2)s1`, the activation is inactive: -11.6%.

In the case of `COc1ccc(C2CC(=O)c3cc(-c4nc(-c5cccc([N+](=O)[O-])c5)cs4)c(=O)n(-c4ccc(C)c(C)c4)c3C2)cc1` (stereo not drawn), the activation is inactive: 2.25%.

For `CC(C)Oc1ccc(C(=O)Nc2ccc3c(c2)CCCN3C(=O)c2cccs2)cc1`, the activation is inactive: -13.4%.

Regarding `CCC(Sc1nc2ccccc2c2nc(CCn3cncc3C)nn12)C(=O)Nc1cccc(OC)c1` (stereo not drawn), the activation is inactive: -16%.

With `O=C(Cn1cc(SCc2ccc(C(F)(F)F)cc2)c2ccccc21)N1CCCCCC1`, the activation is inactive: -35.2%.

As to `COc1ccc(Cn2c(CNC(=O)c3ccc(N(C)C)cc3)nc3cccnc32)cc1`, the activation is inactive: -17.3%.

Consider `CCC1CCCCN1CCCNC(=O)CN1C(=O)c2cccnc2Oc2ccc(Cl)cc21` (stereo not drawn), for which the activation is inactive: 4.6%.

Take `Cc1sccc1Br`: the activation was inactive: -7%.

Regarding `Fc1ccc(Nc2nc3ccccc3c3nncn23)c(Cl)c1`, the activation is inactive: 6.97%.

In the case of `Cc1cc(C)c2nc(N3CCCC(C(=O)NCc4cccc(Br)c4)C3)sc2c1` (stereo not drawn), the activation is inactive: -3.04%.

Regarding `COc1ccc(CCNC(=O)c2ccc(Cn3c(=O)c4ccccc4n(Cc4cc(C)ccc4C)c3=O)cc2)cc1OC`, the activation is inactive: 11.4%.

In the case of `Cc1ccc2oc(=O)c3cc(C(=O)Nc4ccc(F)cc4F)sc3c2c1`, the activation was inactive: -1.41%.

For the molecule `CC(C)CSc1nnc(-c2ccccc2)c(-c2ccccc2)n1`, the activation was inactive: -11.8%.

Turning to `Cc1ccc(NC(=O)c2oc3ccc(S(=O)(=O)N4CCCCCC4)cc3c2C)cc1Cl`, the activation was inactive: 1.82%.

In the case of `CCOC(=O)c1ccc(N2CCN(c3ccccc3F)CC2)c(NC(=O)Nc2ccc(Cl)c(Cl)c2)c1`, the activation is inactive: -17%.

Consider `Cc1ccc(Cl)cc1NC(=O)CN1C(=O)c2cccc3cccc1c23`, for which the activation was inactive: 25.2%.

Turning to `COc1ccc(C)c2sc(N(Cc3cccnc3)C(C)=O)nc12`, the activation is inactive: -14.9%.

`CCCN1C(=O)c2[nH]nc(-c3ccccc3O)c2C1c1ccc(OCc2ccccc2)c(OCC)c1` (stereo not drawn): the activation is inactive: 9.69%.

Consider `COc1ccc(-c2nc3ccccc3s2)cc1NC(=O)COc1ccccc1C`, for which the activation was inactive: 1.68%.

Consider `COc1ccccc1OCCn1c(NC(=O)c2ccc(Cl)cc2)nc2ccccc21`, for which the activation is inactive: -10.8%.

On to `CCc1ccc(NC(=O)C2CCC(CNS(=O)(=O)c3ccc4c(c3)CC(C)N4C(C)=O)CC2)cc1` (stereo not drawn), for which the activation was inactive: 19.3%.

With `Cc1ccccc1-c1nc(CS(=O)CC(=O)N2CCN(c3cc(Cl)ccc3C)CC2)c(C)o1` (stereo not drawn), the activation was inactive: -4.18%.

Consider `CCCCC(=O)Nc1cccc(-c2nc3ncccc3o2)c1C`, for which the activation was inactive: 46.8%.

`CCN(CC)CCCNC(=O)Cn1nc(C)n2c(cc3sccc32)c1=O`: the activation was inactive: -2.19%.

Take `CCC(=O)N1c2ccccc2CC1C(=O)NCc1cccc(C)c1` (stereo not drawn): the activation was inactive: 8.38%.

In the case of `CCCCc1ccc(NC(=O)Cn2nnc3sc4c(c3c2=O)CCC(C)C4)cc1` (stereo not drawn), the activation is inactive: -4.03%.

For the molecule `COc1ccc(CCNC(=O)Cn2c(=O)n(-c3ccc(C)c(C)c3)c(=O)c3c(C)c(C)sc32)cc1OC`, the activation was inactive: -2.4%.

As to `COc1ccc(Cn2nnc3c(=O)[nH]c(C4CCCN(C(=O)c5ccc(C)cc5)C4)nc32)cc1` (stereo not drawn), the activation was inactive: 16.7%.

With `Cc1ccc(C(=O)c2oc3ccccc3c2NC(=O)Cc2coc3cc(C)ccc23)cc1`, the activation was inactive: 1.05%.

As for `Clc1cccc(CSc2nncn3c2cc2sccc23)c1`, the activation is inactive: -23%.

As to `COc1ccc(OC)c(C(=O)c2c(N)c(-c3nc(-c4ccc(C)c(C)c4)cs3)c3ccccn23)c1`, the activation is inactive: 4.51%.

On to `Cc1nn(S(=O)(=O)c2ccccc2)c(C)c1S(=O)(=O)N1CCC(C)CC1`, for which the activation was inactive: -0.342%.

For `COc1ccc(NC(=O)c2ccc3oc(=O)c(S(=O)(=O)c4ccc(C)cc4)cc3c2)cc1OC`, the activation was inactive: -0.477%.

In the case of `CCc1ccccc1NC(=O)Cn1ccn(-c2cc(C)cc(C)c2)c(=O)c1=O`, the activation is inactive: -13.9%.

Regarding `CCOc1cccc(C2Nc3ccccc3-c3cc(C)nn32)c1O` (stereo not drawn), the activation was inactive: -3.07%.

Regarding `CCn1c(=NC(=O)c2ccc3c(c2)OCCO3)sc2c(C)ccc(OC)c21`, the activation is inactive: -6.53%.

In the case of `CCOC(=O)C1(C)C=C(Nc2ccc(Br)cc2)C(=O)N1c1ccccc1` (stereo not drawn), the activation was inactive: 0.465%.

Consider `Cc1ccc(NC(=O)CSc2nc(C)c(Cc3ccccc3)c(=O)[nH]2)cc1C`, for which the activation was inactive: 25.5%.

Consider `CCCCCCCCCCCCCCCCCCNC(=O)OC1CCN(C(=O)OC[C@H](COC(=O)N(Cc2cccc[n+]2CC)C(=O)c2ccccc2OC)OC)CC1`, for which the activation is inactive: 30.3%.

For `COc1ccc(CCNC(=O)c2ccc3c(c2)CCN3S(C)(=O)=O)cc1`, the activation was inactive: -38.9%.

Regarding `CCN(c1ccccc1)C(CNS(=O)(=O)c1ccccc1)c1ccccc1` (stereo not drawn), the activation was inactive: -1.24%.

In the case of `COc1ccc2c(CNCc3ccc(C)o3)c(C(=O)O)n(Cc3ccccc3C)c2c1`, the activation is inactive: -6.37%.

In the case of `CCN(C(=O)C(=O)Nc1ccc2nc3n(c(=O)c2c1)CCCCC3)c1ccc(F)cc1`, the activation is inactive: -0.317%.

For `Cc1ccc(OCC(=O)Nc2ccc(OCc3cc(=O)n4cccc(C)c4n3)cc2)cc1C`, the activation was inactive: -0.978%.

As for `COc1ccc(CCNC(=O)Cc2c(C)c3c(cc(C)c4c(C)coc43)oc2=O)cc1OC`, the activation is inactive: -14.6%.

In the case of `COc1ccc(CC(=O)NC2CC(=O)N(c3cccc(F)c3)C2)cc1` (stereo not drawn), the activation was inactive: -5.57%.

For the molecule `Cc1ccc(-c2nnc(Nc3ccc(Br)cc3)c3ccccc23)cc1S(=O)(=O)N1CCN(C)CC1`, the activation was inactive: -19.2%.

With `Cc1nn(C(C)C(=O)NC2CCCCC2)c(=O)c2c1sc1ccccc12` (stereo not drawn), the activation was inactive: -9.03%.

For the molecule `O=C(c1ccc2c(c1)N(Cc1ccccc1)C(=O)c1ccccc1S2(=O)=O)N1CCN(c2ccccc2)CC1`, the activation is inactive: -5.22%.

Regarding `COc1ccc(OC)c(C2NC(=O)NC(C)=C2C(=O)Nc2cc(C)cc(C)c2)c1` (stereo not drawn), the activation is inactive: -5.27%.
